Values joined by “and” are separate entries in the source; they are usually repeats but may differ in a detail not shown here. Equal values may be shown once. About 540 (0.36%) of roughly 150,000 compounds showed an effect of 50% or more. The list shows a part of the results.
Test system: Plasmodium falciparum
Assay: Primary screen in NF54 nanoGlo assay, in single point, at 2uM, 72h; a lower Z score goes with more inhibition
Assay type: functional, Erythrocyte
Settings: timepoint 72 hour

| SMILES | % Inhibition [%] | Z score | % Inhibition (2 µM) |
| --- | --- | --- | --- |
| CCOc1ccc(CNC(=O)[C@H](C)n2nc(C)c3nn(-c4ccccc4)c(C)c3c2=O)cc1OC | 6 | -0.83 |  |
| COc1ccc(C(=O)N2CC[C@H]3[C@H](C2)OCc2cnnn23)cn1 | 0 | 0.03 |  |
| COc1ccc(-c2ccc(=O)n(CN3CCCCC3)n2)cc1OC | -16 | 2.01 |  |
| CC(C)N1C[C@H]2CN(S(=O)(=O)Cc3ccc(F)cc3)C[C@@]2(C(=O)N2CCCC2)C1 | 6 | -1.04 |  |
| O=C(Nc1ccccc1)N1CC(O)CC1C1CCCCC1 (configuration not stated) | -5 | 0.75 |  |
| C[C@@H](CO)N(C)c1cc(Oc2ccccc2Br)ncn1 | 2 | -0.25 |  |
| C[C@H](NS(=O)(=O)CC1CCOCC1)c1csc(C2CC2)n1 | -4 | 0.82 |  |
| Cc1nc(NCC2(C)CCOCC2)n(C)n1 | -9 | 1.09 |  |
| CCOC1CC(C(=O)NCc2coc3ccccc23)C1 (configuration not stated) | -9 | 1.65 |  |
| CC(=O)N1CCOC[C@H]1c1nc(-c2ccc(OC(F)(F)F)cc2)c[nH]1 | 32 | -3.66 |  |
| Cc1ccc(C(=O)N2[C@H](C(=O)NCc3ccccc3)COC23CCN(C(=O)c2ccc(F)cc2)CC3)cc1 | -16 | 1.86 |  |
| c1cc(C[C@@H]2CC[C@H](CN3CCCOCC3)O2)ccn1 | -8 | 1.6 |  |
| O=C(O)Cc1csc(-c2ccc(Cl)s2)n1 | -9 | 1.22 |  |
| Cc1ccc(S(=O)(=O)N2CCc3ncncc3C2)s1 | 0 | -0.06 |  |
| Cc1nc(N(C)Cc2ccon2)cc([C@H]2C[C@@H](O)C2)n1 | -8 | 1.45 |  |
| O=C(C[C@@H]1NC(=O)N(CCc2ccccc2)C1=O)N1CCc2ccccc2C1 | -9 | 1.37 |  |
| Cc1nnc(CNC(=O)N(C)CC(F)(F)F)o1 | -8 | 1.45 |  |
| O=C(NS(=O)(=O)c1ccc2c(c1)OCCCO2)C1CCC1 | -34 | 3.94 |  |
| Cc1cnn(CC(=O)N2CCN([C@H](C#N)C3CCCCC3)CC2)c1 | -6 | 1.07 |  |
| O=S(=O)(c1ccc2c(c1)CCCC2)N1CC(N2CCCC2)C1 | -8 | 1.19 |  |
| C=CCN(C(=O)c1ccc(=O)[nH]n1)[C@@H](C)C(C)C | 15 | -1.64 |  |

| SMILES | % Inhibition [%] | Z score | % Inhibition (2 µM) |
| --- | --- | --- | --- |
| COc1ccc(-c2ccnc(N3CCN(c4cccc(C(F)(F)F)c4)CC3)n2)c(OC)c1 | -34 | 4.04 |  |
| Nc1c2c(-c3ccc(F)cc3)nc(NCc3ccccn3)nc2nn1-c1ccccc1Cl | 4 | -0.51 |  |
| CC=Cc1ccc(OCC(=O)Nc2cccc(NC(=O)Nc3ccccc3)c2)c(OC)c1 | -7 | 0.59 |  |
| CC(C)c1nc(CN(CC(F)(F)F)C2CCC2)no1 | -15 | 2.89 |  |
| Cc1c(CNCCCN(Cc2ccccc2)C(C)C)c(C(=O)O)c(C)n1-c1ccc(Cl)cc1 | -9 | 1.18 |  |
| O=C(c1csc(-c2ccc(F)cc2)n1)N1CCC1 | -9 | 1.24 |  |
| Cc1nn(CCCNC(=O)c2nccnc2C(=O)N2CCCCC2)c(C)c1C | 8 | -1.06 |  |
| COc1cc(OC)cc(C2(O)CCN(Cc3c(C)noc3C)CC2)c1 | -8 | 1.26 |  |
| Cc1ncnc(NCCCn2nccc2C2CC2)c1C | -6 | 0.58 |  |
| O=C(Cc1cccc(Cl)c1)N1CC[C@@]2(CO)CN(Cc3ccccc3)C[C@H]2C1 | -5 | 0.54 |  |
| COCCn1c(C)cnc1[C@H]1CCN(C(=O)C(C)C)C1 | 1 | -0.1 |  |
| O=C(CC1(O)CCCC1)N1CCC(Cc2ccccc2)CC1 | 7 | -1.17 |  |
| O=C(O)C[C@@H]1CCN(S(=O)(=O)c2ccccc2)C[C@@H]1Cc1nc2cccc(Cl)c2[nH]1 | 6 | -0.72 |  |
| COc1ccc(OC)c2sc(NC(=O)c3cc(C)oc3C)nc12 | -5 | 0.78 |  |
| COCC(C)(C)CNc1cc2nncn2c(N)n1 | -7 | 1.01 |  |
| NC(=NOCCC1OCCO1)C1CCCCCC1 | 7 | -0.87 |  |
| O[C@]12CCNC[C@H]1CN(Cc1cc(F)ccc1C(F)(F)F)CC2 | -6 | 1.07 |  |
| COc1ccc(C(=O)NCc2c(C(F)(F)F)nn(C)c2Oc2ccccc2)cc1 | -7 | 1.03 |  |
| Cc1cc(Br)ccc1NS(=O)(=O)N(C)C | -11 | 2.2 |  |
| O=C(C[C@@H]1NC(=O)N(Cc2ccco2)C1=O)N1CCN(c2ccccc2)CC1 | 1 | -0.19 |  |
| CCOc1ccc(NC(=O)c2c(C)oc3ncn(Cc4ccc(F)cc4)c(=O)c23)cc1 | -11 | 1.53 |  |

| SMILES | % Inhibition [%] | Z score | % Inhibition (2 µM) |
| --- | --- | --- | --- |
| CCC(CC)S(=O)(=O)CC(=O)NCc1ccc(Cl)s1 | -13 | 1.27 |  |
| CCC1(C)CN(C(=O)c2nc3cnccc3s2)C1 | 9 | -0.87 |  |
| CC(C)[C@H](NC(N)=O)C(=O)NCc1ccccc1 | 3 | -0.49 |  |
| Cc1[nH]ncc1CNC(=O)CC1(N2Cc3ccccc3C2=O)CCC(C(C)(C)C)CC1 (configuration not stated) | 2 | -0.2 |  |
| Brc1cnccc1-c1cncnc1 | -11 | 1.69 |  |
| COc1ccc(C(=O)N2C[C@H](c3nnc(C(C)C)o3)C3(CCN(C)CC3)C2)c(C)c1 | -4 | 0.71 |  |
| COC(=O)c1cnc(N2CCN(c3ccc(O)cc3)CC2)c(S(=O)(=O)N2CCOCC2)c1 | -6 | 1.21 |  |
| CC(C)(C)N(CCS(C)(=O)=O)C(=O)c1cccc(-c2ccoc2)c1 | 2 | -0.18 |  |
| CCn1cc(C(=O)NCc2snnc2C)cn1 | -8 | 1.1 |  |
| CNC(=O)c1ccc(CNCC(=O)NC2CCCCCCC2)cc1 | -7 | 1.1 |  |
| C=C[C@](C)(CC)C(=O)Nc1n[nH]cc1Br | 35 | -3.91 |  |
| OC[C@H]1COCCN1Cc1c(Cl)oc2ccccc12 | -10 | 0.95 |  |
| CC(C)c1nc([C@H](C)Nc2ncnc3[nH]ncc23)cs1 | -4 | 0.39 |  |
| O=C(NCC1(c2cccc(F)c2)CCCCC1)c1cncs1 | 1 | -0.06 |  |
| Cc1ccc(C(=O)N[C@H]2CCOC[C@@H]2OCc2c(C)noc2C)c(=O)[nH]1 | -10 | 2 |  |
| Cc1cccc(-c2nsc3c(=O)n(CC(=O)Nc4ccc(Br)cc4)cnc23)c1 | -4 | 0.77 |  |
| COc1ccc([N+]2=C3CCCCN3C[C@]2(O)c2ccc(Cl)cc2)cc1 |  |  | 3% and -11% |
| CNS(=O)(=O)CCn1ccnc1-c1ccc(-c2cc[nH]n2)o1 | -11 | 1.12 |  |
| CC(C)c1ccc2nc(-c3ccc(CN4C(=O)CNC4=O)cc3)[nH]c(=O)c2c1 | -10 | 1.09 |  |
| Cc1nc(N2CCOCC2)c2scc(-c3ccccc3)c2n1 | -11 | 1.48 |  |
| COCC(=O)N(Cc1c(C)nn(-c2ccccc2)c1Oc1ccc(F)cc1F)C[C@H]1CCCO1 | 6 | -0.63 |  |

| SMILES | % Inhibition [%] | Z score | % Inhibition (2 µM) |
| --- | --- | --- | --- |
| O=C(CN(C[C@H]1CCCO1)c1ncnc2ccsc12)N1CCCC1 | -10 | 1.09 |  |
| CCOC(=O)Cc1csc(NC(=O)c2nc(C)sc2C)n1 | -20 | 2.43 |  |
| Cc1cc(-c2csc(NC(=O)Cc3c(F)c(F)c(F)c(F)c3F)n2)c(C)s1 | 1 | -0.08 |  |
| Cc1ccc(-c2nc(-c3ccncc3)no2)cn1 | -17 | 1.96 |  |
| Cc1c(CCNC(=O)NCCNS(C)(=O)=O)c2cccc3c2n1CCC3 | -9 | 1.83 |  |
| CCc1nc(-c2ccccc2)nc(N2CCN(C(=O)c3ccco3)CC2)c1Cc1cccc(C)c1 | -16 | 2.37 |  |
| Cc1ccc(CNC(=O)C(=O)NC2CC2)cc1 | -7 | 0.99 |  |
| COc1ccc(NS(=O)(=O)c2ccc(-c3nnc(C4CCCC4)o3)o2)cc1 | -10 | 1.28 |  |
| Cn1ncc2c1CN(S(=O)(=O)c1cc(F)cc(Cl)c1)C2 | 7 | -0.89 |  |
| Cc1nn(C)c2nc(O[C@@H](C)C(=O)N3CCc4ccccc43)cc(-c3ccccc3)c12 | -2 | 0.27 |  |
| c1cc(-c2ccc(NC3CCCC3)nn2)n[nH]1 | -15 | 2.87 |  |
| COc1ccc([C@H]2CC(O)=Nc3nc(N4CCCCC4)sc32)cc1OCC(N)=O | -5 | 0.57 |  |
| CN(C)c1ccc(NC(=O)C(C2CC=CCC2)N(Cc2nc(-c3ccccc3)cs2)C(=O)Cn2nnc3ccccc32)cc1 (configuration not stated) | 40 | -4.5 |  |
| Cc1cc(C)c2c(NC(=O)Cc3cccs3)nn(C)c2n1 | -15 | 1.88 |  |
| COCCCn1cnnc1CNS(=O)(=O)c1cccc2nn(C)nc12 | -4 | 0.61 |  |
| CC1=NO[C@@](C)(Cn2cc(Oc3ccccc3)c(=O)c(C(=O)O)c2)C1 | -14 | 1.86 |  |
| CN1CCN(C(=O)c2cccc3ccc(O)nc23)CC1(C)C | 6 | -1.22 |  |
| CCn1cc(CCN2C(=O)C[C@]3(CCc4ccccc43)C2=O)cn1 | -5 | 0.99 |  |
| CCc1ccc(-c2cn3ccn(-c4ccc5c(c4)CCC5)c(=O)c3n2)cc1 | 5 | -0.68 |  |
| Cc1nc(CCN)n(-c2cccc3ccccc23)n1 | -5 | 0.98 |  |
| CN(C)S(=O)(=O)N(CCN1CCCC1)[C@H]1CCN(C(=O)Nc2cc(F)ccc2F)C1 | -10 | 1.3 |  |

— ChEMBL document CHEMBL4888484, “Replenishing the malaria drug discovery pipeline: Screening and hit evaluation of the MMV Hit Generation Library 1 (HGL1) against asexual blood stage Plasmodium falciparum ,using a nano luciferase reporter read-out” (2022)
